In all, about 270,000 compounds went through this assay and about 620 (0.23%) were called active. The shares of active, inactive and inconclusive entries below differ from those in the screen. Calls come from the whole dose curve; as a rule, active = well fitted inhibition curve with a large enough effect in the polarisation, with a control signal flat (not every such curve was filed as active); inconclusive = small, poorly fitted or top-dose-only effect, or effect the other way, or a change in a side signal; inactive = no such curve, though single readings can be large or run the other way; the % refers to the polarisation. Where the call is inconclusive, the potency comes from a doubtful curve fit. A note “side channel” means that the fit belongs to a control or component signal, not to the main read-out.
The compounds below were run against Menin (Homo sapiens) (UniProt O00255) (assay: qHTS Assay for Inhibitors Targeting the Menin-MLL Interaction in MLL Related Leukemias: Competition With Texas Red Labeled MLL-derived Mutant Peptide). Conditions: fluorescence polarization; series mostly up to 61.6 µM.
Chain of UniProt O00255 (O00255 whole entry, looked up): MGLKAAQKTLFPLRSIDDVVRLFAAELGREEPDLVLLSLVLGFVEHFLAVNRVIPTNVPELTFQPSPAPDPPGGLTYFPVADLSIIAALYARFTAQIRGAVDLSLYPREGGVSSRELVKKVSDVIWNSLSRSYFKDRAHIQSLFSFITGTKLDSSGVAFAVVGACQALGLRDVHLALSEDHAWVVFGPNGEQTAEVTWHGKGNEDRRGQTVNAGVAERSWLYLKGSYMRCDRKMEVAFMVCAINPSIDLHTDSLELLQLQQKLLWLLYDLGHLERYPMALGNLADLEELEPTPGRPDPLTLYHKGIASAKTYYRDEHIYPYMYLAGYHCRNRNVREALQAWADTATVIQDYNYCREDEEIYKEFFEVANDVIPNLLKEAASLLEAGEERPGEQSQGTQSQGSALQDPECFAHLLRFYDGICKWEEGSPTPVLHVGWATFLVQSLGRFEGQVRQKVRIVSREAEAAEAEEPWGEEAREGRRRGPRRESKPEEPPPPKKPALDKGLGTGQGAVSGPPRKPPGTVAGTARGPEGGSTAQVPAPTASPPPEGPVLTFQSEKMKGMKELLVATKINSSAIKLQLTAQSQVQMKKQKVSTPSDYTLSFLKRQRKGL
For `CCn1c(N2CCC(Cc3ccccc3)CC2)nc2c1c(=O)[nH]c(=O)n2C`, the Potency was inconclusive: 10 µM [fluorescent, side channel, partial curve, poor fit].
For `COc1cc(NC(=O)Cc2ccccc2)ccc1NC(=O)Cc1ccccc1`, the Potency was inconclusive: 31.6 µM [inhibitor, single point].
With `CC(=O)c1ccc(N(C(=O)CNC(=O)c2cccs2)C(C(=O)NCC2CCCO2)c2ccccc2)cc1` (stereo not given) the Potency was inconclusive: 39.8 µM [inhibitor, single point].
`Cc1ccc(NC(=O)/C=C/c2ccc3c(c2)OCO3)cc1S(=O)(=O)N1CCOCC1` was tested, and the Potency was inconclusive: 14.1 µM [quencher, side channel, partial curve].
In the case of `Cc1ccc(-c2nc(N)sc2CC(=O)OCC(=O)N2C(C)CCCC2C)cc1` (stereo not given), the Potency is reported as inconclusive: 15.8 µM [inhibitor, partial curve].
With `O=C(CSc1nc(-c2ccccc2)cc(C(F)(F)F)n1)c1cccc([N+](=O)[O-])c1` the Potency was inconclusive: 10 µM [quencher, side channel, partial curve].
In the case of `Oc1c(C=C2N=c3ccccc3=N2)sc(=S)n1C1CCCC1`, the Potency is reported as inconclusive: 10 µM [quencher, side channel, partial curve].
With `CCOc1cc(/C=C2\C(=N)N3N=C(C)SC3=NC2=O)ccc1OCCOc1cccc(OC)c1` the Potency was inconclusive: 39.8 µM [inhibitor, single point].
In the case of `O=C(CNC(=O)c1ccccc1)N/N=C/c1cc(Br)ccc1O`, the Potency is reported as “inactive”.
In the case of `CC1=CC(=O)c2c(O)ccc(O)c2C1=O`, the Potency is reported as inconclusive: 7.94 µM [quencher, side channel, partial curve].
With `O=C(c1cccc2ccccc12)N1CCC(N2CCN(c3ccccc3)CC2)CC1` the Potency was inconclusive: 17.8 µM [fluorescent, side channel, partial curve, poor fit].
With `C/C(=C/c1ccccc1)C(=O)N1CCN(c2ccccc2)CC1` the Potency was inconclusive: 31.6 µM [fluorescent, side channel, single point].
`CCCCCCCCCC[n+]1cccc2c3ccccc3ccc21` was tested, and the Potency was inconclusive: 2.51 µM [fluorescent, side channel, full curve, poor fit].
In the case of `O=C(COc1ccccc1)Nc1ccc(CSc2ccccc2)cc1`, the Potency is reported as inconclusive: 22.4 µM [fluorescent, side channel, single point].
For `O=C(O)CCNc1cc(N2CCN(C(=O)c3ccco3)CC2)c2noc3c2c1C(=O)c1ccccc1-3`, the Potency was inconclusive: 25.1 µM [fluorescent, side channel, partial curve].
With `O=[N+]([O-])c1cc(S(=O)(=O)C(F)(F)F)ccc1Sc1nc2ccccc2[nH]1` the Potency was inconclusive: 35.5 µM [quencher, side channel, single point].
With `CCCNC(=O)CCn1nc(-c2ccc(C)cc2)c2ccccc2c1=O` the Potency was inconclusive: 15.8 µM [fluorescent, side channel, partial curve].
In the case of `COc1ccc(-c2[nH]n(-c3ccc([N+](=O)[O-])cc3)c(=O)c2C=NCC2CCCO2)cc1` (stereo not given), the Potency is reported as inconclusive: 4.47 µM [quencher, side channel, full curve].
With `COc1ccc(NC(=O)CC2C(=O)N(C)C(=S)N2Cc2ccc3c(c2)OCO3)cc1` (stereo not given) the Potency was inconclusive: 25.1 µM [quencher, side channel, single point].
For `COc1ccccc1Oc1ccc2c(c1)C(=O)N(c1ccc(O)cc1)C2=O`, the Potency was inconclusive: 39.8 µM [inhibitor, single point].
For `Nc1nc(SCC(=O)c2ccc([N+](=O)[O-])cc2)n[nH]1`, the Potency was inconclusive: 8.91 µM [quencher, side channel, partial curve].
For `Cc1ccc2c(c1)C(CCN)C(=O)N2Cc1ccccc1` (stereo not given), the Potency was inconclusive: 39.8 µM [fluorescent, side channel, partial curve].
For `O=[N+]([O-])c1cc(S(=O)(=O)N2CCCC2)ccc1O`, the Potency was “inactive”.
With `O=C(N/N=C/c1sc(N2CCCCC2)nc1-c1cccs1)C1CC1` the Potency was inconclusive: 39.8 µM [quencher, side channel, single point].
For `CCc1nnc(SCC(=O)NC2CC2)n1CC`, the Potency was inconclusive: 3.16 µM [quencher, side channel, partial curve].
In the case of `O=C(c1cccs1)N1CCCC(c2nc3c(nnn3Cc3ccc(F)cc3)c(=O)[nH]2)C1` (stereo not given), the Potency is reported as inconclusive: 3.98 µM [inhibitor, partial curve, poor fit].
In the case of `COc1ccc(N(C(=O)c2snc(C(N)=O)c2N)C(C(=O)NCc2ccccc2)c2ccc(O)cc2)cc1` (stereo not given), the Potency is reported as inconclusive: 7.94 µM [quencher, side channel, single point].
In the case of `O=C(CN1CCCC1)Nc1c2c(nc3ccccc13)N(Cc1ccccc1)CC2`, the Potency is reported as inconclusive: 35.5 µM [inhibitor, single point].
With `Fc1ccccc1Cc1noc(CN2CCN(C/C=C/c3ccccc3)CC2)n1` the Potency was inconclusive: 17.8 µM [fluorescent, side channel, partial curve].
In the case of `CC(C)OC(=O)c1ccc(NC(=O)Cn2c(-c3nonc3N)nc3ccccc32)cc1`, the Potency is reported as inconclusive: 11.2 µM [quencher, side channel, partial curve].
`Oc1ccc(N2Cc3ccccc3C2)cc1` was tested, and the Potency was inconclusive: 31.6 µM [quencher, side channel, partial curve].
With `CCOc1ccc(-c2nnn(CC(=O)NCCc3c[nH]c4ccccc34)n2)cc1` the Potency was inconclusive: 39.8 µM [inhibitor, single point].
`COc1ccc(C(=O)CCN2CCCCCC2)cc1` was tested, and the Potency was inconclusive: 12.6 µM [inhibitor, partial curve].
With `O=C1CC(c2ccco2)CC(O)=C1C=Nc1cc(Cl)ccc1O` (stereo not given) the Potency was inconclusive: 31.6 µM [quencher, side channel, single point].
`N#CCc1ccc(C(=O)c2ccccc2)s1` was tested, and the Potency was inconclusive: 20 µM [quencher, side channel, partial curve].
`c1ccc(Cn2nnc3c(NCC4CCCO4)nc(C4CC4)nc32)cc1` (stereo not given) was tested, and the Potency was inconclusive: 17.8 µM [fluorescent, side channel, partial curve].
In the case of `O=C(NCc1ccc(Cl)cc1)C(=O)c1c[nH]c2ccccc12`, the Potency is reported as inconclusive: 28.2 µM [quencher, side channel, single point].
For `COc1cc(CNC2CCCC2)cc(Cl)c1OCc1ccccc1Cl`, the Potency was inconclusive: 8.91 µM [inhibitor, partial curve].
With `CCN1c2ccccc2N(C)C1(C)c1ccccc1` (stereo not given) the Potency was inconclusive: 35.5 µM [fluorescent, side channel, single point].
With `C=CCN(Cc1nc(-c2ccc(OC)cc2)no1)C(=O)c1ccc2c(c1)OCO2` the Potency was inconclusive: 17.8 µM [fluorescent, side channel, partial curve].
For `Cc1cccc2sc(NC(=O)CN3C(=O)c4ccccc4C3=O)nc12`, the Potency was inconclusive: 39.8 µM [quencher, side channel, single point].
For `CCOC(=O)/C=C/CCC/C=C/C(=O)c1ccccc1`, the Potency was “inactive”.
In the case of `CCN(CC)c1ccc(C(=S)NCc2ccccc2)cc1`, the Potency is reported as inconclusive: 11.2 µM [quencher, side channel, partial curve].
With `Nc1cc(-c2cccc(F)c2)nn1S(=O)(=O)c1cccc2nsnc12` the Potency was inconclusive: 28.2 µM [quencher, side channel, single point].
With `COc1ccc(NC(=S)NC(NC(=O)c2ccccc2Cl)C(Cl)(Cl)Cl)c([N+](=O)[O-])c1` (stereo not given) the Potency was inconclusive: 25.1 µM [quencher, side channel, partial curve].
`COc1ccc(N2C(=O)[C@@H]3[C@H](C2=O)[C@H]2c4ccccc4C=CN2[C@@H]3C(=O)Nc2ccccc2)cc1` was tested, and the Potency was inconclusive: 11.2 µM [quencher, side channel, partial curve].
In the case of `Cc1ccc(-c2nc(Nc3cccc(O)c3)c3ccccc3n2)cc1`, the Potency is reported as inconclusive: 3.16 µM [quencher, side channel, full curve].
With `COc1ccc(/C=C2/SC(=O)N(CC(O)Cn3c4ccccc4c4ccccc43)C2=O)cc1` (stereo not given) the Potency was inconclusive: 22.4 µM [inhibitor, single point].
For `OC[C@@H]1OC(O)[C@H](O)[C@H](O)[C@H]1O` (stereo not given in full), the Potency was “inactive”.
`Cc1cc(C)cc(NC(=O)C(=O)NCCc2c[nH]c3ccccc23)c1` was tested, and the Potency was inconclusive: 20 µM [quencher, side channel, partial curve].
`Cc1ccc(N2C(=O)c3ccccc3NC2C(C)Cc2ccc3c(c2)OCO3)cc1` (stereo not given) was tested, and the Potency was “inactive”.
In the case of `Cc1ccc(N=c2c([N+](=O)[O-])nn(-c3ccc4c(c3)OCCO4)n2O)c(Cl)c1`, the Potency is reported as inconclusive: 12.6 µM [quencher, side channel, partial curve].
`O=C(NC(=S)Nc1ccccc1O)c1ccc(-c2ccc(Cl)cc2)o1` was tested, and the Potency was inconclusive: 14.1 µM [quencher, side channel, partial curve].
In the case of `NC(=S)N=Nc1c(O)n(Cc2ccc(F)cc2)c2ccccc12`, the Potency is reported as inconclusive: 25.1 µM [quencher, side channel, partial curve].
`CCc1nnc(NS(=O)(=O)c2ccc(NC(=S)NC(=O)/C=C/c3ccc(C(C)C)cc3)cc2)s1` was tested, and the Potency was inconclusive: 8.91 µM [quencher, side channel, partial curve].

From PubChem BioAssay AID1768 (National Center for Advancing Translational Sciences (NCATS), 2009)
Potency is the fitted concentration of half-maximal effect; tags give direction and shape of the fitted curve or compound fluorescence and quenching.
